# Laboratory results reported in the BET-seq Pho4 binding data (Le et al. 2018).
# The other results are listed elsewhere or left out. Values were computed here from the reads of four pooled replicates and scatter widely.
# Target: T1, Pho4 (S. cerevisiae) (UniProt P07270)
# T1 sequence: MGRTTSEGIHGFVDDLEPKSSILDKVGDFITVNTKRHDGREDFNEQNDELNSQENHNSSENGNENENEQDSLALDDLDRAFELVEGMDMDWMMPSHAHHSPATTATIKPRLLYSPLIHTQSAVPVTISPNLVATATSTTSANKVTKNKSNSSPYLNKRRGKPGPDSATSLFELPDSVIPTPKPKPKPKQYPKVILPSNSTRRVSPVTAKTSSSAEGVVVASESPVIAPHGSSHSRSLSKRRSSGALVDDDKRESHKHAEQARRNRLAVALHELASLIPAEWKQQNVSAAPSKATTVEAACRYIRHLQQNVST
# Test: relative binding free energy (BET-seq); higher = weaker binding
# Conditions: reference: library average
row,Sequence,relative binding free energy [kcal/mol]
1,TGAGTCACGTGGCGGA,0.04
2,GATATCACGTGTTGTT,0.25
3,TGATTCACGTGCTATG,0.19
4,AATATCACGTGCATGG,0.12
5,TTTGTCACGTGGTGTC,0.01
6,ACGTGCACGTGTAGGT,-0.16
7,GTGTTCACGTGGCCTG,0.18
8,CGGAACACGTGGGTGA,-0.06
9,CGAGGCACGTGAAGTT,0.29
10,AGAGGCACGTGTGCGG,-0.23
11,TATTCCACGTGTTGGT,0.19
12,ATTTCCACGTGGTTTT,0.12
13,GGAAGCACGTGGTCTG,-0.27
14,TATGGCACGTGAGTGC,0.13
15,TGTATCACGTGAATTG,0.37
16,AGATTCACGTGTGCGT,0.09
17,AGTTCCACGTGAGTTG,0.29
18,ATGGCCACGTGGGTCG,-0.22
19,TAAGGCACGTGACGTG,-0.06
20,GTCTACACGTGTTGTA,0.01
21,CTAGGCACGTGAATTG,0.19
22,TTTTGCACGTGCGATT,0.07
23,TTATACACGTGGTGTT,-0.01

row,Sequence,relative binding free energy [kcal/mol]
1,AAGTACACGTGTATAT,0.12
2,TGGTTCACGTGTGCTT,0.22
3,TTATTCACGTGCAGGG,0.29
4,TGGGGCACGTGGTCCG,-0.16
5,ATCTTCACGTGGGAGG,0.24
6,GTTATCACGTGAATTT,0.33
7,ATGTTCACGTGTATAT,0.21
8,GTGAGCACGTGTGACT,0.14
9,GGGGTCACGTGATTCG,0.3
10,TTTCTCACGTGTAAAG,0.3
11,CGTTTCACGTGCAGGG,0.21
12,GGTTGCACGTGCTTAA,0.05
13,TTAAGCACGTGTACTA,0.05
14,GCATGCACGTGTTTGT,-0.07
15,GTAAACACGTGAGTTG,0.16
16,GTTAGCACGTGGAGTG,0.02
17,GTGTTCACGTGTGGTG,0.33
18,GGAATCACGTGGCCGG,0.22
19,GTGAACACGTGTGGGG,0.1
20,TTGATCACGTGGCGGC,-0.01
21,AGGGTCACGTGGCAGT,0.08
22,TGGAGCACGTGTTTAT,-0.12
23,GATCGCACGTGATGTT,0.23

row,Sequence,relative binding free energy [kcal/mol]
1,GCTTTCACGTGTCTGT,0.34
2,TTTAACACGTGGTAAA,0.03
3,GGTATCACGTGTGGCG,0.33
4,CATGACACGTGGGGGT,-0.1
5,CGGTGCACGTGTTCTT,0.02
6,ATTCACACGTGGGTAT,-0.06
7,TCTTTCACGTGAGGTT,0.24
8,TGTAACACGTGAATTG,0.2
9,GTTCACACGTGGTTAT,0.09
10,GCGGTCACGTGTTCGG,0.15
11,TTGTGCACGTGGTTCG,-0.04
12,CTGTACACGTGATATG,0.18
13,GTTAGCACGTGCAGAT,0.21
14,ATGGGCACGTGTGCAC,-0.08
15,TGTTACACGTGGGAAG,0.11
16,CTGGGCACGTGATAGT,0.01
17,CAAGTCACGTGTGGGT,0.04
18,TTTAACACGTGGTTCT,-0.03
19,GATTTCACGTGAAGGA,0.56
20,GTTTCCACGTGTAGTA,0.09
21,GGTTCCACGTGAAGGT,0.3
22,ACGGGCACGTGTGGAG,-0.02
23,GTTTACACGTGTTATT,0.22

row,Sequence,relative binding free energy [kcal/mol]
1,TTTTTCACGTGTACTC,0.3
2,TTAGTCACGTGGCGAG,0.13
3,TTGGGCACGTGACATG,-0.05
4,GATCTCACGTGTAGGT,0.26
5,CAAGTCACGTGATGGG,0.15
6,TTTAGCACGTGCGTAA,-0.09
7,TGGTTCACGTGTTCTG,0.25
8,TTAAGCACGTGGATTT,-0.03
9,GGTTTCACGTGTTAAA,0.27
10,TTCTACACGTGTGTTT,0.14
11,GTTATCACGTGTTATG,0.11
12,TTAAACACGTGCTGTT,-0.13
13,TTGGGCACGTGTATGC,-0.17
14,GGTGTCACGTGTAGAA,0.07
15,GGATACACGTGTGGAG,0.11
16,CTTGGCACGTGTTCGG,-0.17
17,TAGGTCACGTGGAGTG,0.12
18,AAAAGCACGTGGGGTC,-0.14
19,GAAGTCACGTGGGCAT,0.05
20,CAAGGCACGTGTAATG,0.03
21,TTTATCACGTGTAAGA,0.23
22,CTAGGCACGTGGATGG,-0.17
23,GCGGTCACGTGATGTA,0.2

row,Sequence,relative binding free energy [kcal/mol]
1,AAGGGCACGTGGTATT,-0.09
2,AGTGTCACGTGTAGTC,-0.16
3,ATCATCACGTGTTATG,0.06
4,GCATTCACGTGCTGGT,0.27
5,ATTTGCACGTGGTACG,0.07
6,TTAGGCACGTGTGGTA,0.01
7,TTAGGCACGTGTGTAA,-0.01
8,TAATTCACGTGGATCG,0.3
9,GAGTCCACGTGTGATT,0.37
10,AGGGTCACGTGTGGCT,0.18
11,GTTGTCACGTGCTGCG,0.11
12,AAGTACACGTGTGGTA,0.16
13,TATGACACGTGGGTGC,-0.1
14,TAGAGCACGTGGTTTG,-0.11
15,ATTGCCACGTGAGTGT,0.01
16,AAGGTCACGTGGGTTG,-0.04
17,TTTCGCACGTGCGGTT,-0.1
18,ATTCTCACGTGAAAGT,0.5
19,GGTGGCACGTGGATAG,0.12
20,TGTTGCACGTGGGGTT,-0.08
21,AAGGCCACGTGATGGG,0.07
22,AGGGTCACGTGGGATA,-0.14
23,GAGGCCACGTGGTAGT,-0.06
